# Measured values reported in PMC12040169 (PLOS Biology, 2025).
# This is one part of the list.
# Tested on: T1, C. trachomatis L2/434/Bu expressing GFP (CTL2-GFP)
# T1 construct: L2/434/Bu GFP intracellular growth in HeLa cells
# Design: species or system HeLa; C. trachomatis total inclusion area by high-content imaging, normalised to DMSO
# Conditions: total inclusion area; 28.5 h, 10 µM; inhibitor
# How it was run: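 High-content images of fixed, Hoechst-stained infected cultures supply inclusion area and count (growth) plus nuclei number (viability), complementing bulk GFP/resorufin fluorescence. MIC determination is unchanged from the primary assay.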
row,Compound,% of control remaining
1,CCCC/C=C/c1cn2ccnc2c(NCCc2ccccn2)n1 [CBK066275],100.308
2,COc1ccccc1C1(O)CC2CCC(C1)N2 (stereo not shown) [CBK281369],98.7222
3,CCn1c2ccccc2n2c(SCCC(=O)O)nnc12 [CBK267135],127.754
4,CCCc1[nH]n(CCc2ccccc2)c(=O)c1Cc1c(Cl)cccc1Cl [CBK112499],85.1872
5,C=CCn1cc(CN2CCc3nc(C)[nH]c(=O)c3C2)c2ccccc21 [CBK282376],99.3148
6,CN1CCN(CCP(=O)(c2ccccc2)c2ccccc2)CC1 [CBK020260],100.165
7,CCN(CC)CCCN1C(=O)CSC1c1ccc2c(c1)OCO2 (stereo not shown) [CBK263482C],61.1957
8,CCn1cc(C(=O)N2CCCC2c2nccs2)c(=O)c2ccc(C)nc21 (stereo not shown) [CBK307171],69.9678
9,FC(F)(F)c1ccc(-c2c[nH]c([C@@H]3COCCN3Cc3csnn3)n2)cc1 [CBK289318],107.069
10,O=P(O)(CCc1ccncc1)CN1CCOCC1 [CBK262317],110.958
11,Cc1ccc(S(=O)(=O)CC(CN2CCOCC2)N2CCOCC2)cc1 (stereo not shown) [CBK264590],104.161
12,N#C/C(=C\c1ccc(O)cc1)c1nc(-c2ccc3c(c2)OCO3)cs1 [CBK262370],38.6691
13,O=C(NCCc1ccsc1)N1CCN(c2ccncc2)CC1 [CBK305595],41.5462
14,COc1ccccc1C(NC(=O)C1CCN(C(=O)c2cccc(Cl)c2)CC1)c1ccccn1 (stereo not shown) [CBK059637],142.766
15,C=CCSc1nnc(CSc2nc3sc4c(c3c(=O)[nH]2)CCCC4)n1-c1ccccc1 [CBK263341],118.735
16,O=C(O)c1cc(-c2ccc(OC(F)F)cc2)[nH]n1 [CBK288022],65.6544
17,COc1ccc(-c2ccc3c(c2)C(=O)N2CCN(C(=O)CC(C)(C)C)C[C@@H]2C(=O)N3)cc1 [CBK289584],109.872
18,CS(=O)(=O)N[C@H]1CO[C@H]2[C@@H]1OC[C@H]2OC(=O)Nc1cccc2ccccc12 [CBK289469],95.3927
19,COc1cc2c(cc1OC)/C(=C(\C(=O)Nc1ccccc1)C(=O)N1CCCCC1)NC(C)(C)C2 [CBK087103],107.685
20,O=C(O)CCN1CCN(S(=O)(=O)c2cccc([N+](=O)[O-])c2)CC1 [CBK268819],104.501
21,CCOC(=O)c1nnc(-c2cccs2)nc1NC1CCCCC1 [CBK018110],84.7842
22,Cn1c(=O)oc2ccc(C(=O)CSc3nnnn3-c3ccccc3)cc21 [CBK300488],83.7866
23,Cc1ccc(CSCCNS(=O)(=O)c2ccc([N+](=O)[O-])cc2)cc1 [CBK268496],93.7134
24,COc1nccnc1N1CCN(Cc2ccc([N+](=O)[O-])cc2)CC1 [CBK084217],70.3938
25,c1cncc(CN2CCC[C@@H]2CN2CCCC2)c1 [CBK149101C],92.1924
26,CCc1nnc(NC(=O)CSc2nc3c([nH]2)c(=O)n(C)c(=O)n3C)s1 [CBK025840],56.1551
27,CN1CCC(NC(=O)c2cccc(OCC(=O)N3CCCCC3)c2)C1=O (stereo not shown) [CBK307281],58.9724

row,Compound,% of control remaining
1,CC(=O)OCc1c(C)cc(C)c(CN(C)C(C)c2ccncn2)c1C (stereo not shown) [CBK307315],72.874
2,CC(C)NC(=O)NC[C@H]1C[C@@H]2CCN1C[C@@H]2c1cc(-c2cccs2)nn1C [CBK289103],94.1495
3,COc1ccccc1-c1cn2ccnc2c(N2CCCC2CO)n1 (stereo not shown) [CBK037266],112.263
4,O=C1CC(N2CCN(Cc3ccc4c(c3)OCO4)CC2)C(=O)N1c1ccc(Cl)c(Cl)c1 (stereo not shown) [CBK074549],84.2093
5,COc1ccc(C(=O)[C@H]2CCCN(C(=O)c3ccco3)C2)cc1 [CBK284327],80.6239
6,O=[N+]([O-])c1cc(S(=O)(=O)Nc2cccc3ccccc23)ccc1N1CCNCC1 [CBK015584C],83.5844
7,CC(C)Nc1nc2ccccc2nc1OC1CCN(C)C1 (stereo not shown) [CBK113283],96.5212
8,C/C(=N\O)c1oc2ccccc2c(=O)c1O [CBK010642],67.4444
9,CCOC(=O)C(NC(=O)CC)(Nc1cc(C)on1)C(F)(F)F (stereo not shown) [CBK025721],71.4044
10,COc1cc(OC)c(NC(=O)CN(C)S(=O)(=O)c2cc(Cl)ccc2Cl)cc1Cl [CBK267399],107.385
11,COc1cc(NC(=S)N2CCN(c3cc(Cl)ccc3C)CC2)cc(OC)c1 [CBK266252],89.3089
12,O=C(Nc1ccc(-c2nc(-c3ccccc3)c3cc(NC(=O)c4cccs4)ccc3n2)cc1)c1cccs1 [CBK261547],121.949
13,N=C1NC(=O)/C(=C\c2cccc(C(=O)O)c2)S1 [CBK264832],108.253
14,COc1cccc(NC(=O)CCN2C(=O)c3ccccc3S2(=O)=O)c1 [CBK266003],75.8755
15,COc1ccc(-n2c(C)c(C#N)c3cc(Br)c(O)c(Br)c32)cc1 [CBK101113],87.3716
16,O=C(NC(Cc1ccsc1)c1cccnc1)C1CCOC1 (stereo not shown) [CBK285116],95.598
17,O=C(NCc1ccc(-c2csnn2)cc1)c1cccnc1 [CBK149309],107.381
18,CC(C(=O)O)c1cc(C(=O)c2ccccc2)sc1-c1ccccc1 (stereo not shown) [CBK260968],100.776
19,Cc1cc(C)n(C(C)CC(=O)NC(C)c2nc3ccccc3s2)n1 (stereo not shown) [CBK281469],95.5045
20,CC(=O)Nc1cccc(-n2nnnc2SCc2noc(C)n2)c1 [CBK304599],54.7786
21,NNC(=O)C(Oc1ccccc1)Oc1ccccc1 [CBK261210],93.5528
22,COc1ccc(CNc2nc[nH]n2)c(OC)c1OC [CBK288129],104.615
23,O=C(CS(=O)(=O)c1ccccc1)Nc1cnc(-c2ccc(F)cc2)c(-c2ccoc2)n1 [CBK037168],116.969
24,CCc1cccc(C)c1NC(=O)CN(c1cccc(Cl)c1Cl)S(=O)(=O)c1ccc(C)cc1 [CBK268666],104.914
25,Cc1ccc(S(=O)(=O)Nc2sccc2C(=O)O)cc1[N+](=O)[O-] [CBK042258],96.3507
26,CCCCCC(=O)N[C@H]1CCC[C@H]1C(=O)O [CBK007807],89.0036
27,CN(C)c1nc(N(C)C)nc(N(C#N)S(=O)(=O)c2ccccc2Cl)n1 [CBK269036],88.4581

row,Compound,% of control remaining
1,CCC1CCCCN1S(=O)(=O)c1ccc(NC(=O)Cn2c(=O)oc3ccccc32)cc1 (stereo not shown) [CBK268069],102.564
2,CC(=O)Nc1cccc(Oc2cnc(-c3ccc(OC(F)(F)F)cc3)c(N)n2)c1 [CBK145119],103.705
3,COc1ccc(-c2[nH]c3ncccc3c2CN2CCCC2)cc1 [CBK285331],48.6247
4,CC1CCc2c(sc3ncnc(NCCCN4CCCCCC4=O)c23)C1 (stereo not shown) [CBK305947],35.5288
5,CCCc1cc(O)nc(SCCCCn2ccnc2C)n1 [CBK306359],62.5795
6,Cn1nc(CN(Cc2ccccc2C(F)(F)F)C2CC2)[nH]c1=O [CBK306391],30.8881
7,CC(=O)Nc1ccccc1OCc1cc(-c2ccccc2)on1 [CBK296617],75.8078
8,COc1cc(/C=N/NC(=O)CCn2c3ccccc3c3ccccc32)ccc1O [CBK262332],44.9953
9,O=C(NCc1cccnc1)c1csc2c1CCCC2 [CBK305029],120.072
10,Cc1nn(-c2ccccc2)c2[nH]c(=O)c(CNC(c3ccccc3)c3ccco3)cc12 (stereo not shown) [CBK286449],93.7819
11,COCc1cc(C)nc2c1C(=O)NC(c1ccccc1C(=O)O)N2Cc1ccccc1 (stereo not shown) [CBK286599],91.3576
12,Cc1ccc(C(=O)N(C)CCN(C)C)c(NCc2cccnc2)n1 [CBK076348],129.182
13,CN1C(=O)COc2ccccc2CCCC[C@@H]2[C@H]1CCCN2C(=O)CCCn1cccn1 [CBK292090],99.5411
14,O=C(O)C1CCN(C(=O)CSc2nc3ccccc3o2)CC1 [CBK286557],91.0945
15,O=C1N[C@]2(Cc3ccccc31)CN(Cc1ccccc1)C[C@H]2CO [CBK284743],95.8441
16,NC(Cc1ccc(Cl)cc1)C(=O)N(CCc1cc(C(F)(F)F)cc(C(F)(F)F)c1)c1cccc2ccccc12 (stereo not shown) [CBK008674T],44.7264
17,O=C1NC2(CCC2)C(=O)N1Cc1nn(-c2ccccc2)c2c1CCC2 [CBK306383],38.8239
18,Cc1csc(C(Cc2ccsc2)NC(=O)C2CC2C)n1 (stereo not shown) [CBK282226],82.5059
19,CC(NC(=O)N1CCSCC1)c1ccc2c(c1)CC(=O)N2 (stereo not shown) [CBK305093],78.977
20,N#Cc1cc2c(=O)n(-c3ccccn3)ccc2[nH]c1=O [CBK288119],99.2482
21,CC1=NN(c2ccc(Cl)c(Cl)c2)C(=O)C1 [CBK067761],94.2841
22,CCN1CCN(C(=O)c2c(-c3ccccc3)noc2C)CC1 [CBK200251],104.112
23,CCC1(CC)OC(N[C@@H](C)c2ccccc2C(F)(F)F)=NC1=O [CBK122691],81.8175
24,CCCNC(=O)c1ccc(C)c(NC(=O)N[C@@H]2C[C@@H](CO)N(C)C2)c1 [CBK307451],102.794
25,O=C(Nc1cccc(N2CCNCC2)c1)c1coc2c1C(=O)CCC2 [CBK034113T],83.5785
